# In the supplement of paper PMC10338343:
# ± gives the standard deviation. The full ranking holds about 5,500 sequences; the median of “pre-steady-state target cleavage rate” is about 0.1, and the highest 2% start at about 0.64. The entries are a selection whose mix differs from that of the whole data set.
# System: MIWI (PIWIL1) piRISC loaded with piRNA #2 (30 nt)
# Assay: pre-steady-state target cleavage rate (min^-1); MIWI and MILI are mouse PIWI proteins and EfPiwi is from a freshwater sponge; tags in brackets are library labels; higher = faster piRNA-guided slicing of the target
# Conditions: guide: piRNA #2 5'p-UUAGGUAACCCAGUAGAUCCAGAGGAAUUC; auxiliary factor: 500 nM mouse GTSF1
# Procedure, shortened: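 Cleave-'n-Seq: a transcribed, DNA-blocked target RNA library (0.1 nM) was mixed with 1 nM active affinity-purified piRISC carrying one synthetic guide, with or without 500 nM GTSF1 partner protein, in HEPES–potassium acetate buffer at 33 °C for 0–8 or 0–960 min. Uncleaved targets were sequenced and normalised to depth and to weakly complementary targets. Three trials were pooled, and k3 was capped at 0.0001 min^-1. The pre-steady-state cleavage rate came from a burst-and-steady-state fit.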
row,Sequence,pre-steady-state target cleavage rate
1,CUUUUGCUCUGGAUCUACUGGGUUAGCUAA,0.385 ± 0.059
2,GAAUUCCUCUGGUUCUAGUGGGUUACCUAA,0.303 ± 0.035
3,CAAUUCCUCUGCUACUACUGGGUUACCUAA,0.557 ± 0.058
4,CUAUACCUCUGGAUCUACAGGGUUACCUAA,0.279 ± 0.038
5,CUUAAGGAGUGGAUCUACGGGGUUACCUAA,0.0113 ± 0.0032
6,CUUAAGGUCUGGAUCUACUGCGUUACCAAA,0.109 ± 0.029
7,GAAUUCCUCUGGAUCUACUGGGUAACGUAA,0.234 ± 0.039
8,CUAGUCCUCUGGAUCUACUGGGUUACCUAA,0.145 ± 0.036
9,CUUAACCUCUCGAUCUAGUGGGUUACCUAA,0.267 ± 0.02
10,CUUAUCCUCUGGAUCAUCUGGGUUACCUAA,0.246 ± 0.028
11,GAAUUCCCCUGGAUCUACUGGGUUACCUAA,0.436 ± 0.034
12,GAAUUCCUCUGGAUCUACUGGGUUACCUUAA,0.243 ± 0.043
13,GAUUUCCUCUGGAUCUACUGGGUUACCUUA,0.142 ± 0.037
14,GAAUUCCUCAUGGAUCUACUGGGUUACCUAA,0.376 ± 0.044
15,CUAUUCCUCUGGAUCUACUGGGGUACCUAA,0.138 ± 0.037
16,CUUAAGCUCUGCAUCUACAGGGUUACCUAA,0.175 ± 0.015
17,CAAUUCGUCUGGUUCUACUGGGUUACCUAA,0.557 ± 0.063
18,CUUAAGGACUGGAUCUUCUGGGUUACCUAA,0.0593 ± 0.037
19,CUUAAGCUUCUGGAUCUACUGGGUUACCUAA,0.166 ± 0.025
20,CUAUUCCUCUGGAACUACUGGGAUACCUAA,0.145 ± 0.031

row,Sequence,pre-steady-state target cleavage rate
1,CUUAAGGACUGGAUCUACUGGGUUACCUAA [g2:g22:cont:t1A],0.157 ± 0.052
2,CUUAAGGUCUGGUUCUACUGGCUUACCUAA,0.0639 ± 0.016
3,GAAAUCCUCUGGAUCUACUGGCUUACCUAA,0.0842 ± 0.017
4,CUUAUCCUCUGGAUCUACGGGGUUACCUAA,0.0689 ± 0.0052
5,CUUAAGGAGAGGAUCUGCUGGGUUACCUAA,0.00675 ± 0.0043
6,CAAUUCCACAGGAUCUACUGGGUUACCUAA,0.538 ± 0.067
7,CUUAUCCUCUGGAUCAACUGCGUUACCUAA,0.427 ± 0.06
8,CUUAUCCUCUGGAUCUACUGGGUUAGGUAA,0.0789 ± 0.024
9,CUUAAGGUCUGGAUCUACUGGGAUAGCUAA,0.0376 ± 0.016
10,CUUAAGGAGUGGAUCUACUGGGUUGCCUAA,0.0417 ± 0.011
11,CUUUUGCUCUGGAUCUACUGCGUUACCUAA,0.355 ± 0.037
12,CUUAAGGUCUGGAUGCUACUGGGUUACCUAA,0.121 ± 0.032
13,CUUAAGGAGAGGAUCUACUGGGUUACCAAA,0.00514 ± 0.0034
14,CAAUUCCUAUGGAUCUACUGGGUUACCUAA,0.544 ± 0.053
15,CUUAACCUCUGGAUCUACUGCGUUACCUAA,0.37 ± 0.049
16,GAAUUCCACUGGAUCUUCUGGGUUACCUAA,0.572 ± 0.051
17,CUUUUGCUCUGGAUCUACAGGGUUACCUAA,0.118 ± 0.011
18,CUUAAGCUCUGGAUCUUCUGGGAUACCUAA,0.0481 ± 0.0094
19,CUUUUCCUCUGGAUCAACUGCGUUACCUAA,0.474 ± 0.056
